According to PubChem BioAssay AID1347043 (National Center for Advancing Translational Sciences (NCATS), 2019):
About 1,900 (2.5%) of roughly 76,000 compounds were called active. Inconclusive results, whose numbers are uncertain, are shown with a selection of clear calls. Calls follow the shape of the dose curve; as a rule, active = well fitted inhibition curve with a large enough effect; inconclusive = small, poorly fitted or top-dose-only effect; inactive = flat fitted curve, though single readings scatter. A potency beside an inconclusive call is a rough fit, not a confirmed value.

What follows are compounds tested against Luciferin 4-monooxygenase (Photinus pyralis) (UniProt P08659) (assay: Firefly luciferase inhibition profiling of diverse chemical library using quantitative high-throughput screening). Conditions: purified P. pyralis luciferase, luminescence, biochemical; activity change, negative = inhibition: at 115 µM (top of the series) unless noted.
In short: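 Purified 10nM P. pyralis luciferase with 10uM D-luciferin and 10uM ATP in 50mM Tris acetate pH 7.5, 10mM Mg acetate, 0.01% Tween-20, 0.05% BSA. qHTS titration; luminescence read by CCD imager.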
% is scaled to controls: 0 for no effect and ±100 for the full control effect; potency is read from the fitted curve at half-maximal effect; tags tell the direction and shape of the fitted curve.
Also: nearly all actives have a fitted effect of over 65% in size.

Chain of UniProt P08659 (P08659 whole entry, looked up): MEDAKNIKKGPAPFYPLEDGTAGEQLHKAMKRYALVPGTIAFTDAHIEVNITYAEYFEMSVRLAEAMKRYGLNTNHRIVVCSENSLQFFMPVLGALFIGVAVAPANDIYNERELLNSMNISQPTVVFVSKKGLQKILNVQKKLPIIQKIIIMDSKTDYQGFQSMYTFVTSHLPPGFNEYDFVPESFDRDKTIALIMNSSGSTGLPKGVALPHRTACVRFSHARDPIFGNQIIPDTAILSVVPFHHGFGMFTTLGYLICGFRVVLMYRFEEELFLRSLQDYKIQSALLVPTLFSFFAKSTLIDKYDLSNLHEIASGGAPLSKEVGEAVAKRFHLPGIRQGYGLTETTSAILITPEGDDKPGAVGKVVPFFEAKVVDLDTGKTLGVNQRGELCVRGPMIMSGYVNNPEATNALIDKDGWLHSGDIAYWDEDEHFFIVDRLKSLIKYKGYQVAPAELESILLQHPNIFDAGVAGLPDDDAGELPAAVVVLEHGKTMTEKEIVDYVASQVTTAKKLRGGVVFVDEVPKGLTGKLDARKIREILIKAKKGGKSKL

Row | SMILES | Potency | activity change, negative = inhibition
1 | CCCn1cc(-c2ccncc2)cc1C(=O)NCc1ccccc1 | inconclusive: 50.1 µM [inhibitor, partial curve, poor fit] | –
2 | O=c1c2c(CO)c(-c3ccccc3)nn2ccn1Cc1ccccc1Cl | inconclusive: 39.8 µM [inhibitor, partial curve] | –
3 | CCN1CCN(Cc2cc(C)cc(CN(C)Cc3ncc(C)[nH]3)c2C)CC1 | active: 39.8 µM | –
4 | CC1=C[C@@H](CN2CCC(O)CC2)[C@H](C(C)C)C[C@H]1Cc1nnc(-c2ccc(N(C)C)cc2)o1 | – | inactive: -2.15%
5 | COc1ccc(-c2noc([C@@H]3C[C@@H](O)CN3Cc3cccnc3)n2)cc1 | inconclusive: 63.1 µM [inhibitor, full curve, poor fit] | –
6 | O=C(C[C@H]1NC(=O)c2ccccc2NC1=O)NCCc1nc(-c2ccccc2)cs1 | – | inactive: 0%
7 | Cc1ccc(NC(=O)N2CCc3c(c4ccccc4n3CC3CC3)C2)cc1 | active: 14.1 µM | –
8 | COc1ccc(C2Cn3cnc(C(=O)N4CCC(C(=O)Nc5ccccc5OC)CC4)c3CO2)cc1 (centres undefined) | inconclusive: 39.8 µM [inhibitor, partial curve] | –
9 | CC(=O)N1CCc2cc(S(=O)(=O)NCCCC(=O)N3CCC(CCOc4ccccc4)C3)ccc21 (centres undefined) | – | inactive: 2.38%
10 | c1ccc(CN2CCC[C@H]2c2nc(-c3ccc(OC4CCCCC4)nc3)no2)nc1 | inconclusive: 56.2 µM [inhibitor, full curve] | –
11 | CN(C)C(=O)N1CCCC(c2nc(-c3ccc4nc[nH]c4c3)no2)C1 (centres undefined) | inconclusive: 56.2 µM [inhibitor, partial curve] | –
12 | CN1c2cc(C(=O)Nc3ccc(OC(F)(F)F)cc3)ccc2C(=O)N2CCCCCC21 (centres undefined) | inconclusive: 50.1 µM [inhibitor, partial curve] | –
13 | Cc1ccc(NC(=O)N2CCC(CCNC(=O)c3n[nH]c4ccccc34)CC2)cc1F | inconclusive: 28.2 µM [inhibitor, partial curve] | –
14 | O=C(Cn1nc2n(c1=O)CCCC2)Nc1ccc2c(c1)OCO2 | inconclusive: 44.7 µM [inhibitor, partial curve, poor fit] | –
15 | C1=CC[C@H]2CN(c3nccc(-c4ccccn4)n3)C[C@H]2C1 | – | inactive: -11.6%
16 | CC1(C(=O)NC2CCOCC2)CCc2cnc(Nc3ccccc3)nc21 (centres undefined) | – | inactive: 4.67% [at 172 µM]
17 | CCOC(=O)c1ccc(NC(=O)c2ccc3c(c2)N(C)C2CCCCN2C3=O)cc1 (centres undefined) | – | inactive: -12.5%
18 | COc1ccccc1CC(=O)Nc1cnc(-c2cccnc2)nc1 | inconclusive: 44.7 µM [inhibitor, partial curve] | –
19 | COc1cccc(C(=O)Nc2ccc3c(c2)CN(Cc2ccccc2F)C(=O)CO3)c1 | inconclusive: 44.7 µM [inhibitor, partial curve] | –
20 | Cc1cnc(NC(=O)c2ccc3c(c2)OCCN(Cc2ncccn2)C3)s1 | active: 39.8 µM | –
21 | CN(C)C[C@@H]1CN(S(C)(=O)=O)C[C@H]1NC(=O)c1c(F)cccc1Cl | active: 39.8 µM | –
22 | Cc1cc(CNC(=O)Cc2nonc2C)c2[nH]c(-c3ccccc3)c(C)c2c1 | active: 10 µM | –
23 | CCCN[C@H]1C[C@@H](Cc2cc(COc3ccccc3)on2)C1(C)C | – | inactive: -16.3% [at 172 µM]

Row | SMILES | Potency | activity change, negative = inhibition
24 | O=C(Cc1cccc(Cl)c1)N1CCCC(n2cc(-c3nc(-c4ccccc4)no3)nn2)C1 (centres undefined) | inconclusive: 31.6 µM [inhibitor, partial curve, poor fit] | –
25 | Cc1cc(CNC(=O)Cc2ccc(-n3cnnn3)cc2)c2[nH]c(C)c(C)c2c1 | – | inactive: 3.88%
26 | O=C1COc2ccc(OCc3ccccc3)nc2CN1Cc1ccccc1F | – | inactive: -4.1% [at 172 µM]
27 | COc1cccc(-c2cc(C(=O)NCc3c(C)cc(C)[nH]c3=O)c3c(c2)ncn3C)c1OC | – | inactive: -3.03%
28 | CCCN(C)c1nccnc1OC1CCN(C(=O)c2ccccc2OC)C1 (centres undefined) | inconclusive: 28.2 µM [inhibitor, partial curve] | –
29 | CNC(=O)C1(C)CN(Cc2ccccc2)Cc2ccc(Nc3ccccc3)nc21 (centres undefined) | inconclusive: 35.5 µM [inhibitor, full curve] | –
30 | Cc1ccc(NC(=O)N2CCC(CCNC(=O)Cc3cccc(F)c3)CC2)cc1 | inconclusive: 50.1 µM [inhibitor, partial curve] | –
31 | O=C(c1noc(-c2ccc(F)cc2)n1)N1CCN(c2ccc(Cl)cc2)CC1 | inconclusive: 25.1 µM [inhibitor, full curve] | –
32 | COc1ccccc1CNC(=O)c1noc(-c2ccc(C)cc2)n1 | inconclusive: 50.1 µM [inhibitor, partial curve] | –
33 | O=C(c1cc2ccccc2[nH]1)N1CCC2(C1)NC(=O)N(Cc1ccc(Cl)cc1)C2=O (centres undefined) | inconclusive: 35.5 µM [inhibitor, partial curve] | –
34 | COc1cccc(C(=O)N2CCC(n3cc(-c4nc(-c5ccccc5)no4)nn3)C2)c1 (centres undefined) | inconclusive: 79.4 µM [inhibitor, partial curve] | –
35 | Cc1cccc(-n2nc(-c3c(C)nc4scc(CC(=O)NC5CC5)n4c3=O)cc2C)c1 | – | inactive: -12.7%
36 | c1ccc(CN2CCNc3cc(-c4ccncc4)ncc3C2)cc1 | inconclusive: 89.1 µM [inhibitor, partial curve] | –
37 | O=C(Cn1ccn2nc3c(c2c1=O)CCCCC3)Nc1ccccc1C(F)(F)F | inconclusive: 39.8 µM [inhibitor, partial curve] | –
38 | CCc1noc(-c2nc(-c3ccccc3F)no2)n1 | active: 11.2 µM | –
39 | O=C(N1CCCC(n2cc(-c3nc(-c4ccccc4)no3)nn2)C1)C1(c2ccccc2)CC1 (centres undefined) | inconclusive: 50.1 µM [inhibitor, partial curve] | –
40 | CCn1ccc(C(=O)N2CCCN(c3cc(-c4ccc(OC)cc4)[nH]n3)CC2)n1 | inconclusive: 79.4 µM [inhibitor, partial curve] | –
41 | CCCNC(=O)N1CCC2(CC1)CC(N(C(=O)NC(C)C)C1CC1)CCO2 (centres undefined) | – | inactive: 6.51%
42 | O=C(NC1CCCN(c2cc(-c3ccccc3)[nH]n2)C1)c1nccc2ccccc12 (centres undefined) | inconclusive: 39.8 µM [inhibitor, partial curve] | –
43 | CCC1(N2CCN(C(=O)c3ccc(C(F)(F)F)s3)CC2)CCN(C(=O)NC)C1 (centres undefined) | inconclusive: 44.7 µM [inhibitor, partial curve] | –
44 | O=C(Cc1cccc(C(F)(F)F)c1)N1CCCc2ncc(C(=O)N3CCCC[C@@H]3c3ccccc3)cc21 | – | inactive: 13.4%
45 | CC(C)C(=O)N1CCC(Cc2noc(-c3ccccc3)n2)C1 (centres undefined) | inconclusive: 50.1 µM [inhibitor, partial curve, poor fit] | –
46 | COc1ccc(-c2cc3c(=O)n(CCNC(=O)c4ccc(C)s4)ccn3n2)cc1 | inconclusive: 1.58 µM [inhibitor, full curve] | –

Row | SMILES | Potency | activity change, negative = inhibition
47 | Cc1nonc1CC(=O)N1CCCC(CNS(=O)(=O)c2cccs2)C1 (centres undefined) | – | inactive: -2.93%
48 | O=C(NCCc1ccncc1)c1ccc2c(c1)N(S(=O)(=O)c1ccccc1F)CC2 | inconclusive: 50.1 µM [inhibitor, partial curve] | –
49 | COCCC(=O)NCCC1CCN(C(=O)Nc2ccc(C)cc2)CC1 | inconclusive: 50.1 µM [inhibitor, partial curve, poor fit] | –
50 | CN(C)c1ccc(C(=O)NCC2CCN(c3cc(-c4ccc(F)cc4)[nH]n3)CC2)cc1 | inconclusive: 22.4 µM [inhibitor, full curve] | –
51 | COc1ccccc1-c1cnc(NC(=O)c2ccc(F)c(Cl)c2)c2c1CCO2 | active: 17.8 µM | –
52 | COCC(=O)N[C@@H]1CN(Cc2ccc(C)o2)C[C@H]1CO | – | inactive: 1.21%
53 | O=C(COc1ccccc1)N1CCN(C(=O)c2nnn3c2COC(c2ccc(Cl)cc2)C3)CC1 (centres undefined) | – | inactive: 3.08%
54 | CSc1ccc(NC(=O)C2CCN(C(=O)c3ncn4c3COC(c3ccc(F)cc3)C4)CC2)cc1 (centres undefined) | inconclusive: 50.1 µM [inhibitor, partial curve] | –
55 | COc1ccc(C(=O)N2CCC(Cc3nc(-c4ccccc4)n[nH]3)CC2)cc1OC | inconclusive: 89.1 µM [inhibitor, single point] | –
56 | COc1ccc(NC(=O)c2cccc3c2CCN3C(=O)Nc2ccc(F)cc2)c(C)c1 | active: 2.24 µM | –
57 | Cc1ccc(OCc2nc(C3CCN(C(=O)c4ccn[nH]4)C3)no2)cc1 (centres undefined) | – | inactive: 8.07%
58 | COc1ccc(-c2cc(N3CCC(NC(=O)c4ccc(F)cc4Cl)C3)n[nH]2)cc1 (centres undefined) | inconclusive: 39.8 µM [inhibitor, partial curve, poor fit] | –
59 | CC(C)NC(=O)Cc1ccc(N(Cc2ccc(F)cc2)C(=O)c2ccco2)cc1 | – | inactive: 4.23%
60 | Cc1ccc2nc(CO[C@H]3CN(CC(C)(C)C)C[C@H]3F)[nH]c2c1 | inconclusive: 50.1 µM [inhibitor, partial curve] | –
61 | NC(=O)C1CCN(C(=O)[C@H]2C[C@@H](O)[C@H](O)[C@@H]3N=C(Nc4cccc(C(F)(F)F)c4)S[C@@H]32)CC1 | inconclusive: 50.1 µM [inhibitor, partial curve] | –
62 | CCOc1cccc(-c2nc(C3CCOC3)no2)c1 (centres undefined) | active: 12.6 µM | –
63 | Cc1ccccc1CN1CCc2nc(C(=O)Nc3ccccc3)oc2CC1 | inconclusive: 8.91 µM [inhibitor, full curve, poor fit] | –
64 | CC1=C[C@@H](CNC(=O)CN(C)C)[C@H](C(C)C)C[C@H]1Cc1nc2ccccc2[nH]1 | – | inactive: -5.03% [at 172 µM]
65 | O=C1[C@@H]2C[C@@H](O)CN2C2(CN(Cc3ccccc3)C2)C(=O)N1Cc1ccccc1F | – | inactive: -3.48% [at 172 µM]
66 | O=C(Nc1cnc(-c2ccc(Cl)cc2)nc1)c1ccccc1Cl | active: 0.631 µM | –
67 | Cc1ccccc1-c1noc(-c2ccc(NC(C)c3cnn(C)c3)nc2)n1 (centres undefined) | active: 0.316 µM | –
68 | O=C(CCC1CCN(C(=O)c2ccccc2)CC1)NCC1CCCCC1 | – | inactive: 0.943%
69 | Cc1cnc(CC2CCCN(C(=O)CCc3c[nH]c4ccccc34)C2)n1C(C)C (centres undefined) | active: 14.1 µM | –
